Test results: doi:10.1101/2024.07.26.605305 (bioRxiv, 2024)

Target: tau fibril seeds (fibrils of recombinant 4R2N tau, 441-residue isoform) (human, UniProt P10636-8 1-441)
Assay: cross-linking

B1: HTRA1^S328A (proteolytically inactive HTRA1, catalytic Ser328 exchanged by Ala), Strep-tagged, […], lacking the mac domain (enzyme)
chain: not shown
B1: binds.
